Experimental data: publication PMC3858276 (2013)

Molecular target: T1, phosphorylated SNAP-ADAP fusion protein (ADAP amino acids 570-690) (human, UniProt O15117 570-690, phosphotyrosine (in vitro phosphorylation by Fyn kinase, approx. 90% of each phosphorylation site; sites in Table S1); BG-647 dye on the SNAP-tag)
T1 chain: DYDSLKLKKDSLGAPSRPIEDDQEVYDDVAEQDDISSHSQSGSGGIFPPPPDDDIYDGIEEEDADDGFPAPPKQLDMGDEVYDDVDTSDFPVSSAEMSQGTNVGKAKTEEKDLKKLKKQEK
Assay: MST

B1: Src SH2 domain without biotin (for MST) (domain or fragment)
chain: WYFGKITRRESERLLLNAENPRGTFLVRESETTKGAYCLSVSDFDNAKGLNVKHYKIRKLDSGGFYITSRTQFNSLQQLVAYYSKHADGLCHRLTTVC
Kd: 1150 nM
